Source: the supplement of paper PMC4466236
In all, about 33,000 sequences were measured (“E-score (dimensionless, -0.5 to 0.5)”: median about -0.058, highest 2% from about 0.35 on). The list shows a part of the results.

These sequences were tested on MvaT (assay: PBM 8-mer E-score (mean of HK and ME arrays) (E-score (dimensionless, -0.5 to 0.5)); higher = stronger relative binding preference; most listed sequences are background and not binding sites).
Outline: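 Full-length P. aeruginosa MvaT, with glutathione S-transferase fused to its N-terminus (cloned into pTH6838 by isothermal assembly), was tested by protein binding microarray using a previously described protocol. Two universal double-stranded 60-mer arrays (ME and HK) were used, each with a constant 25-mer primer region and a variable 35-mer region covering all 8-mers. The rank-based 8-mer E-score (-0.5 to 0.5) is the mean of the two arrays, parsed with a custom Python script.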

Sequence | PBM 8-mer E-score
CCGGGTGC | -0.271
CAAATGTA | 0.0762
CTATCTTA | 0.192
GCTAAATA | 0.272
CTCAACAG | -0.152
CCCTGATC | -0.224
CTGTCATA | -0.0239
ACCGGTCG | -0.188
CCCATCAC | -0.15
CGAGAAGC | -0.243
ATCACAGC | 0.0367
AATGGGCC | -0.21
CCTGCTAC | -0.173
ACTCCGCA | -0.0998
ACAGAACA | -0.035
CCATGGCA | -0.147
TAGGCGCA | -0.0598
GAAACAGC | -0.128
CCGCTAAC | -0.124
GCGGAGTA | -0.163
ACCCGGGA | -0.218
CACAATCG | -0.0847
CCAAGCAA | 0.0281
CACGTGCC | -0.0431
AGTTAGAG | 0.135

Sequence | PBM 8-mer E-score
CTGTTTCC | -0.0404
AATGATCC | 0.131
AGAACAAG | 0.0432
AAGTAGCT | -0.0477
GTTGTATA | 0.337
AAGAGGCA | -0.146
ACGTGTGC | -0.129
AAAGTCGG | 0.0698
GTTAGTGA | -0.0298
AGAATTGA | 0.0231
CTGCGACC | -0.121
AACGCCGA | -0.239
TTATCCAA | 0.29
GACGGAAC | -0.13
AGCAGTGG | -0.0628
AGGTCTGA | -0.11
AGAAAAAT | 0.0732
ACTCGAGG | -0.0621
CCTTGCCG | -0.172
GACAGCGC | -0.151
AGCGGAAC | -0.0552
ATAGCGGA | 0.0413
GGACAATA | 0.222
CTAGCTTA | 0.0773
ACTATAAT | 0.436

Sequence | PBM 8-mer E-score
CACTATGA | 0.0673
CCCAACAC | -0.0792
ACGTTGCG | -0.206
CCACAAAA | -0.00309
AGGAAATC | -0.135
AAATCATC | -0.125
GCCATAGC | -0.237
CCTGTAAC | 0.0801
AGACTCTG | 0.0263
AAAAATGT | 0.0973
GTAGAGAA | -0.0127
AGCTCCCA | -0.313
ATTACTGC | 0.148
CACGGTCC | -0.229
CCACTTCA | 0.0378
ACCGTGCA | 0.0516
AAAAACTC | 0.108
CCAGAATA | 0.212
AACATCTA | 0.265
CCAACTAA | 0.117
GTGGTAAA | 0.0535
GATTCTGC | -0.159
CAGATTCA | 0.0109
ACCCTTCC | -0.184
ATTGAAAA | 0.208

Sequence | PBM 8-mer E-score
ATCCCGAT | -0.0356
GCTAATTA | 0.352
GCGATCGA | -0.0642
ATCAAACG | -0.0333
ACTTCGGC | -0.0412
TCATACGA | -0.09
CTTTCATC | -0.0606
GAGCTGAC | -0.316
CGCGGCCC | -0.302
GCCTTAAA | 0.129
ACATGTGG | 0.056
AAGTTGGA | 0.241
CGGAAGAC | -0.128
CTTTAGCA | 0.0383
ACCCATGG | -0.112
CGATATTA | 0.331
CCATGAGG | -0.203
GCAGAAAA | 0.148
CGTTAGGA | -0.0326
CGGTTTAA | 0.179
CACTATTA | 0.357
CATCAGAC | -0.0888
ACGCCCAT | -0.175
AACTGACT | 0.0393
ATTAGATC | 0.103

Sequence | PBM 8-mer E-score
GCAAGCTA | -0.201
CACCTACA | -0.0302
ATCGGATG | -0.137
GCGTACAC | 0.0414
CTTGCAGC | -0.107
AACGTAAG | 0.0101
ATCTTTAC | 0.166
CAATACTG | 0.132
GATTCTGA | -0.00658
TCCTGAGA | -0.121
AGAGGATC | -0.122
CCCAAAAA | 0.0436
TAATCGTA | 0.148
CCAAGAAC | -0.14
AGTTCAAT | 0.308
CCGCCTAC | -0.217
ACCTAATG | -0.0237
GTCCACAA | -0.0607
GCACACAC | -0.13
AAGTAATA | 0.379
TTAGCTAA | 0.232
ACTACAAA | 0.121
ATGTCGAG | -0.0422
GGTCGAGA | -0.0867
ACGATCCG | -0.0878

Sequence | PBM 8-mer E-score
ATTGCGTG | 0.0773
ACCACAAG | -0.156
CGGTCCGC | -0.2
AGGTAACT | 0.162
CCTCAAGA | -0.154
AAAGAGAA | 0.0973
CCCTTTCC | -0.188
ACCAACAA | 0.0871
TCAACGAA | -0.0952
ATGGCCAG | -0.256
AGCGAAAA | 0.103
ACCTTGCA | -0.00186
CCGTGATC | -0.247
ACCAGCGG | -0.131
GTATGCCA | 0.0023
ACTTTCCC | 0.153
CTTGTTTA | 0.198
AACGCGGT | -0.0925
CAATCTTA | 0.0597
ATTGCGTC | -0.0416
CACCCAAC | -0.0487
AACTTATG | 0.372
CGTAATTC | 0.225
TTGAAAAA | 0.218
AAAGTCTT | 0.238

Sequence | PBM 8-mer E-score
ACTCTACT | 0.0819
ACGACGAA | -0.0134
AGAGAAGA | -0.0463
CCCCCAGA | -0.33
ATAAGCTA | 0.183
CGCCAGTC | -0.1
ACTTGCAG | 0.0173
CTTAACCC | 0.113
AAGTCAGA | -0.0529
CACGGTCA | -0.146
AAGCTTGA | -0.24
ACCTACTC | -0.175
AGCCGGCC | -0.306
AGTATGTC | 0.111
GCCCAAAC | -0.0754
GAAATATC | 0.227
ATATCCGC | 0.187
AGTTGTTC | 0.176
CAAAAAGG | 0.0108
CTAATGTC | 0.0129
AGACTGTG | -0.134
GTACGGAA | -0.103
